Source: PMC12040169 (PLOS Biology, 2025)
This is one part of the list.

system: T1, C. trachomatis L2/434/Bu expressing GFP (CTL2-GFP); parameters: species or system HeLa; C. trachomatis total inclusion area by high-content imaging, normalised to DMSO; conditions: total inclusion area; 28.5 h, 10 µM; inhibitor
T1 construct: L2/434/Bu GFP intracellular growth in HeLa cells
How it was run: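 Imaging read-out: GFP inclusions and Hoechst nuclei captured by high-content imaging after fixation. Inclusion area/number = chlamydial growth; nuclei count = host cell viability. MIC calculated per earlier method.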

Row | SMILES | % of control remaining
1 | O=C(c1ccc(-c2ccc(OCC3CCN(c4ncccn4)CC3)cn2)cc1)N1CCOCC1 [CBK173183] | 92.0216
2 | Cc1cc(C)nc(N2CCC(CC(=O)N(C)CC(C)c3ccccc3)CC2)n1 (centres unmarked) [CBK286105] | 84.4072
3 | Cc1nn(C)c(N2CCN(C(=O)OC(C)(C)C)CC2)c1N [CBK034182] | 6.785
4 | O=C(CCn1cnc2ccccc21)N1CC[C@@H](c2ccccc2)[C@H](O)C1 [CBK283712] | 95.7795
5 | NNC(=O)/C(=C\c1ccccc1)CCO [CBK261215] | 88.8339
6 | Cc1ccccc1/N=C1/NC(=O)/C(=C/c2cccn2-c2ccc(S(N)(=O)=O)cc2)S1 [CBK265681] | 92.436
7 | Cn1cnc(S(=O)(=O)Nc2cccc3cc[nH]c23)c1 [CBK159554] | 92.2434
8 | Cc1ccc(-c2nn(-c3ccccc3)cc2C2CC(c3cccs3)=NN2C(=O)CCC(=O)O)cc1 (centres unmarked) [CBK296126] | 119.254
9 | Cc1nn(CC(=O)NC(C)C)c(=O)c2cc3ccsc3n12 [CBK284027] | 80.3816
10 | OCc1cccc(-c2nccnc2NCc2ccc(OC(F)(F)F)cc2)c1 [CBK037476] | 114.528
11 | OC(COCc1ccc2c(c1)OCO2)CN1CCN(C(c2ccccc2)c2ccccc2)CC1 (centres unmarked) [CBK074850C] | 74.0707
12 | Cn1c(-c2c(CCC(=O)O)oc3cc(O)ccc3c2=O)nc2ccccc21 [CBK264831] | 109.434
13 | C/C(C(=O)O)=C(/C)C(=O)N1CCC2(C1)NCCc1c2[nH]c2ccccc12 (centres unmarked) [CBK046995] | 95.861
14 | Cc1ccc([C@@]2(O)CC[C@@H]3CN(S(=O)(=O)C(C)C)C[C@@H]32)cc1 [CBK285297] | 99.005
15 | O=C1N=C(NCC2CCCCC2)OC1Cc1ccccc1 (centres unmarked) [CBK067023] | 96.4078
16 | O=C1c2cccc3cccc(c23)C(=O)N1CC1CCN(CC(O)COCc2ccccc2)CC1 (centres unmarked) [CBK074407C] | 33.1603
17 | Cn1c(=O)[nH]c(=O)c2c1nc(N1CCOCC1)n2CCCSc1nc2ccccc2s1 [CBK269368] | 96.0663
18 | CN(Cc1ccccc1)C(=O)c1c[nH]nc1C1CCCN(Cc2cccc(Cl)c2)C1 (centres unmarked) [CBK286490] | 66.7739
19 | CCN(C(=O)CCc1nc2ccccc2n1C)C1CCN(C)CC1 [CBK281994] | 91.5022
20 | CS(=O)(=O)Nc1cc2cccnc2c(-c2ccc3c(c2)CCO3)n1 [CBK085705] | 101.914
21 | N#CCCn1cc(C(=O)Oc2ccc(-c3ccccc3)cc2)c(-c2cccc([N+](=O)[O-])c2)n1 [CBK267968] | 82.5441
22 | CCc1nc(C)c(C(C)N(C)CC(=O)NCc2ccco2)s1 (centres unmarked) [CBK305203] | 77.7794
23 | c1csc(-c2cc3cccnc3n2CCN2CCOCC2)c1 [CBK282718] | 119.29
24 | Cc1cc(NC(=O)CN2CC(C)CC(C)C2)nc2c1c(=O)oc1ccccc12 (centres unmarked) [CBK287620] | 101.99
25 | O=C(Nc1nnc(-c2ccco2)o1)c1ccc(N2C(=O)CCC2=O)cc1 [CBK287423] | 107.166

Row | SMILES | % of control remaining
26 | O=c1[nH]c2ncc(-c3cncc4ccccc34)nc2n1C1CCC(O)CC1 (centres unmarked) [CBK065013] | 111.886
27 | COCC(=O)N1CCc2cc(-c3cn4ccccc4n3)ccc21 [CBK285274] | 104.398
28 | O=C(NCc1nnc(-c2cccs2)o1)C1(c2cccc(F)c2)CC1 [CBK284639] | 109.471
29 | Cc1ccc(S(=O)(=O)N(C)CC(=O)OCC(=O)c2ccccc2)cc1 [CBK264329] | 120.425
30 | O=C(CC1CC1)NC(c1ccccc1)c1ccccn1 (centres unmarked) [CBK144108] | 79.5891
31 | Cc1cc(NC(=O)c2ccccc2O)n(C)n1 [CBK000190] | 54.193
32 | N/C(=N/O)c1ccc(-n2cncn2)nc1 [CBK020936] | 16.2139
33 | CCn1c(COc2ccccc2Cl)nnc1SCC(=O)N1c2ccccc2Sc2ccccc21 [CBK265957] | 84.4211
34 | Cc1noc(C)c1C(=O)NC1(c2ccc(F)cc2)CCCC1 [CBK284013] | 98.4339
35 | COc1cccc(OC)c1OCCN1CCC(C(=O)NC(c2ccccc2)c2ccccn2)CC1 (centres unmarked) [CBK148419] | 103.331
36 | O=C(O)c1cnc(-c2ccccc2)nc1 [CBK261272] | 82.9794
37 | CCN(Cc1ccc(C#N)cc1F)C(=O)Nc1cc(C)nn1C [CBK305730] | 77.1056
38 | O=C(NCc1ccccc1)NC(=O)C1CCN(CCCOc2cccc3ccccc23)CC1 [CBK034856] | 64.3325
39 | Cn1cccc1C(=O)N1CCC(Cc2ccccc2)CC1 [CBK200182] | 53.3382
40 | O=[N+]([O-])c1cccnc1Oc1cccc(Cl)c1Cl [CBK002596] | 96.6116
41 | CCn1c2ccccc2c2cc(CN3CCN(Cc4cccc(F)c4)CC3)ccc21 [CBK263143] | 98.2986
42 | CC(C)[C@H](NC(=O)C1CC(=O)N(c2ccc(F)cc2)C1)C(=O)N1CCC(C(=O)O)CC1 (some centres unmarked) [CBK286669] | 75.8131
43 | O=C(CNC(=O)c1ccncc1)N/N=C/c1c(O)ccc2ccccc12 [CBK261378] | 32.874
44 | CC(=O)Nc1c(Nc2ccccc2)c2ccccc2oc1=O [CBK261756] | 94.5029
45 | Cc1c(CN(C)CC(=O)Nc2ccc(Br)cc2Cl)cnn1C [CBK304214] | 8.495
46 | COCCn1nnnc1C(c1cc2cc(C)ccc2[nH]c1=O)N1CCN(C(=O)c2ccco2)CC1 (centres unmarked) [CBK111562] | 104.548
47 | C=CCN1C(=O)CC2(C1=O)C(=O)N(CCn1cnc3c1c(=O)n(C)c(=O)n3C)c1ccc(Cl)cc12 (centres unmarked) [CBK075410] | 112.425
48 | CCC1CCCCN1C(=O)c1oc2ccccc2c1C (centres unmarked) [CBK078548] | 112.303
49 | COc1ccc(N2CCN(c3cc(-c4ccc(OC(F)(F)F)cc4)ncn3)CC2)cc1OC [CBK091032] | 109.194
50 | Cc1ccccc1CN(CC(=O)NC1CC1)S(=O)(=O)c1ccc(Cl)cc1 [CBK265757] | 149.208
